The source of these data is the RNAGym collection of RNA variant scans (doi:10.1101/gad.245936.114).

B1: tRNA (parent)
chain: CUCUCGGUAGCCAAGUUGGUUUAAGGCGCAAGACUUUAAUUUAUCACUACGAAAUCUUGAGAUCGGGCGUUCGACUCGCCCCCGGGAGAUUUUUUCCUCGAGCAA

This sample is rich in variants without activity.

The variants in this data set derive from B1. In words: nonsense suppression (GFP-seq) (ratio to wild type); higher = more function; SUP4oc tRNA, yeast GFP reporter sort-seq. An outline of the steps:
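Yeast were grown in raffinose/galactose medium with 80 mg/L adenine, each strain bearing a genome-integrated ochre-suppressor tRNA variant from a ~3% random-mutation library, a galactose-driven GFP ochre reporter, and RFP. After sorting into GFP/RFP bins, every bin was sequenced on an Illumina platform at phred ≥30. The GFPSEQ value, a measure of nonsense suppression, is the weighted bin median GFP/RFP relative to the unmutated parent tRNA, using each variant's estimated cell share per bin as the weight. Only variants with ≥100 reads and ≥30 cells were included.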
Consider C27A G32C A74G, for which the nonsense suppression was at most 0.026.
The result for A13U U22A C68G reads at most 0.026; that for G6A C12G, at most 0.026.
The value for C3A U22C G78A was at most 0.026.
The value for C3A C56U A62C was at most 0.026; that for U21C C82U was 1.15.
Regarding C5A U55A C56U, the nonsense suppression was at most 0.026.
Take C1A C80G: the nonsense suppression was at most 0.026.
In the case of A9G U35C C79U, the nonsense suppression is at most 0.026.
With U4A G59C G84U, the nonsense suppression is at most 0.026.
The result for U4A A14U C29A G65U reads at most 0.026; that for G66U C79A, at most 0.026; that for A9C U20G G61U C68U, at most 0.026.
The result for C12G G59A G61A reads at most 0.026; that for A9C G67C, at most 0.026.
The result for U16A U20A C82G reads at most 0.026; that for C1G U21A U70A C83G, at most 0.026; that for U20G G26U A30G G84A, at most 0.026.
For the variant U21A A54U C64G, the nonsense suppression was at most 0.026.
The value for C11A A23U A24G C81U was at most 0.026.
The value for G6A A13G was at most 0.026.
The value for U8A A14U G65A G78U A87C was at most 0.026; that for G10C U17A G26U U35C U58G was at most 0.026; that for C5A G19U U55G A60U was at most 0.026.
Consider G18A G25U G86C, for which the nonsense suppression was at most 0.026.
The result for C80U G88A reads 0.0263; that for C1U U2A C3G A23U G28C, at most 0.026; that for G25A A33C G61U G73C, at most 0.026.
The value for C11U A24C A62C G69U was at most 0.026; that for G59C G85A was 0.114; that for A24G U57C U70A G85C was at most 0.026.
The result for U2C C11G C56A reads at most 0.026; that for A14C U57G, at most 0.026; that for U20C A30G G69A C77A G86A, at most 0.026.
In the case of C3G A9U C27U G59U G73A, the nonsense suppression is at most 0.026.
The value for U8A C11U G78C was at most 0.026; that for C12A U35C C72G G85A was at most 0.026; that for A30G A74G was 0.098.
The result for C1G A14G G19U A62C G69C reads at most 0.026.
Regarding G7U A14G G59U A89C, the nonsense suppression was at most 0.026.
The result for C3G G67C G73A C77A reads at most 0.026; that for U2A G18A, at most 0.026; that for C3U G15A C34U C75G, at most 0.026.
The result for C12G G59C reads at most 0.026.
The result for U16C G66C A87U reads at most 0.026; that for U2C U4G G86C, at most 0.026.
For the variant U20G A62C C75A G88A, the nonsense suppression was at most 0.026.
The result for G61C C68U U76C reads at most 0.026.
The result for C12A U63G G86A reads at most 0.026; that for A24C C80A, at most 0.026.
Take C12U U55C C82A: the nonsense suppression is at most 0.026.
The value for U4C A62C was at most 0.026; that for A9C G26A was at most 0.026; that for U16C U57G C72G C80A was at most 0.026.
The value for A31G was 1.08; that for A60G C79G G86A was at most 0.026; that for C1U C27G was at most 0.026.
In the case of C3G U4G G26A, the nonsense suppression is at most 0.026.
The value for G6A U58G was at most 0.026.
The result for U57C G69A A74G C80A reads at most 0.026; that for A23U C56A C75A, at most 0.026.
The value for U4A G10A was at most 0.026; that for U57A C79A was at most 0.026.
As to A33G U70A C77G, the nonsense suppression was at most 0.026.
The result for C34G C56G reads at most 0.026.
As to U8C U35G U71A, the nonsense suppression is at most 0.026.
The result for U8A G59A G61U G88A reads at most 0.026; that for C11G A13U G59A, at most 0.026; that for C1A A14C, at most 0.026.
The value for G10C G25C was at most 0.026.
The result for A33C C79A reads at most 0.026; that for C5A A14U A23C, at most 0.026; that for C27G C56A C77G, at most 0.026.
U2C C56A G61A C83G: the nonsense suppression is at most 0.026.
The result for G15A U58G C64G C72A C79G reads at most 0.026.
Regarding G10C A60G C68G C77G, the nonsense suppression is at most 0.026.
The result for A13G G86C A87U reads at most 0.026; that for A13C U57A G66A, at most 0.026.
The result for U8C U17C C72U G84U reads at most 0.026; that for G19C G85C G86A, at most 0.026.
The result for C12G G28C U58A G78A reads at most 0.026.
Consider A9C C11G A54C G67C C72A, for which the nonsense suppression is at most 0.026.
The value for U22A A33U C34A U76C was at most 0.026; that for C29G U71G was at most 0.026; that for U76G G88A was at most 0.026.
The value for C5U C80A was at most 0.026; that for C12A C56A U76C was at most 0.026.
The value for A9U C11U G32C C34G A54U was at most 0.026; that for G15C U57C G67U was at most 0.026.
As to A33U G66A G84U, the nonsense suppression is at most 0.026.
As to C5A U55C G59U A60G C82U, the nonsense suppression is at most 0.026.
Take C27G G61A: the nonsense suppression was at most 0.026.
The value for C29G C64U was at most 0.026; that for U22C G78U C83U was at most 0.026.
The value for G6C U8C G10U A13U was at most 0.026; that for C5A G15U G61A C79A was at most 0.026; that for A62C C77A G86U was at most 0.026.
The value for C11G U71A was at most 0.026; that for A9C U55A U58A was at most 0.026; that for U35A G67U was at most 0.026.
On to U17A G59C C80U, for which the nonsense suppression is at most 0.026.
The value for C12G U55C G85U was at most 0.026.
The value for U17A A30C G67U G88A was at most 0.026; that for A9C G18U A24G was at most 0.026.
The result for U2A U4A C11A U63C U71G reads at most 0.026; that for A60C U76A, at most 0.026.
For C3G A30G C34G U55G G69C C79A, the nonsense suppression was at most 0.026.
The value for A74U A87G was at most 0.026; that for C1A U22A G61C was at most 0.026.
The result for U21C A23U A60G reads at most 0.026; that for C27A U55A G85A, at most 0.026; that for C11G A23G C56U U57G U71C C77G, at most 0.026.
The result for G19U G25C G66C C81G G86C reads at most 0.026; that for U16C C34A, at most 0.026; that for G15A G19U A30U G65C, at most 0.026.
Turning to G18C U22G G65A C68U G85U, the nonsense suppression is at most 0.026.
The result for U8A A33G reads at most 0.026; that for G10U G32A, at most 0.026; that for U58G U70G, at most 0.026.
The value for G10U U21C A54U U58G was at most 0.026.
The value for U4G C27U G88U was at most 0.026; that for C29G A54C U63G G66C was at most 0.026; that for C80A G86A was at most 0.026.
Regarding C1U U4C G6C A23C G65C C81A, the nonsense suppression is at most 0.026.
The value for U8A G18C was at most 0.026; that for G25C C77G C80G was at most 0.026.
With G6A G25C C72A, the nonsense suppression is at most 0.026.
The result for A31G G66U reads at most 0.026; that for A14U C64G G88C, at most 0.026; that for U2C U16G, 0.168.
The value for U63C G78U was 0.0499; that for C12A U21C G25U G65A was at most 0.026.
The result for U17C G28A C56G reads at most 0.026; that for C1G A30C G32C, at most 0.026; that for C1G G59U U71A, at most 0.026.
Take C12U A23G C29A: the nonsense suppression is at most 0.026.
The result for C12A A13C reads at most 0.026.
The result for G18C U35A reads at most 0.026.
On to A31G G61U A62U, for which the nonsense suppression is at most 0.026.
The value for U21C C72G A89G was at most 0.026; that for C27A C64U was at most 0.026; that for C27G U55A G61C was at most 0.026.
The result for C3U C81A A87G reads at most 0.026; that for U21G C64A, at most 0.026; that for G32U U76C, at most 0.026.
Take G28U A31C: the nonsense suppression was at most 0.026.
The result for G25U C82G G88U reads at most 0.026; that for C12G U21C G59U G88C, at most 0.026; that for G86U, at most 0.026.
With G18C G66U, the nonsense suppression is at most 0.026.
The value for G85A A89U was at most 0.026; that for A9C G10C C11G A24G A31G A54C was at most 0.026; that for G15C C80A G86C was at most 0.026.
The value for C3A U17C U35G G88U was at most 0.026.
For the variant C3A G66A, the nonsense suppression was at most 0.026.
The result for C1A C11A C75G C81A reads at most 0.026; that for U4G U8G A9G G25U G85U G86U A87C, at most 0.026; that for C56A A62C, at most 0.026.
For the variant U2C G69A, the nonsense suppression is at most 0.026.
U2G G65A G67C C72G C75G: the nonsense suppression is at most 0.026.
The value for G18C A31U was at most 0.026; that for G18C A31C was at most 0.026.
On to U4C A31G G65A, for which the nonsense suppression was at most 0.026.
The result for G7A C56A reads at most 0.026; that for C11G A30G G67U, at most 0.026.
Regarding G18A U35G G67U G86C, the nonsense suppression is at most 0.026.
Regarding G78A A87C, the nonsense suppression was 0.032.
